This passage reports AC50 results from PubChem BioAssay (EPA / NIEHS).

A word on the AC50: it is the concentration giving half of the maximal activity seen. A higher AC50 goes with activity only at high concentration.

Experiment [1] in a line: CCTE_Shafer_MEA_dev_bursting_electrodes_number: CCTE's Neural Network Formation Assay for Number of Bursting Electrodes, Shafer Lab (AID 2284043; active = hit-call score of the fitted dose curve at least 0.9, where 1 is the maximum;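 note: potency is for loss of bursting electrodes relative to DMSO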). The method, boiled down:
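Primary rat cortical neurons plated on 16-electrode MEA wells, exposed from day 0 with compound renewed at DIV 5 and 9. Electrodes bursting ≥1 burst per 2 min counted on days 5, 7, 9 and 12; trapezoidal AUC across days, fitted for loss versus DMSO.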

Experiment [2] is described as follows: CCTE_Shafer_MEA_dev_per_burst_interspike_interval: CCTE's Neural Network Formation Assay for Burst Interspike Interval, Shafer Lab (AID 2284044).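 Note: mean spike spacing inside bursts as AUC over recordings on days 5 7 9 12; potency for a decrease of within-burst interspike interval below DMSO level.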 The method, boiled down:
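Primary rat cortical neurons on 48-well MEA plates, exposed from day 0 through day 12, treatment renewed at DIV 5 and 9. Within-burst interspike interval recorded days 5, 7, 9, 12, well-averaged, summarised as AUC; negative fit versus DMSO.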

Experiment [3] in a line: CCTE_Shafer_MEA_dev_per_network_spike_spike_percent: CCTE's Neural Network Formation Assay for Percent of Spikes in a Network Spike, Shafer Lab (AID 2284054). A digest of the protocol:
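Rat primary cortical neurons were grown on 48-well MEA plates (16 electrodes/well), exposed from plating day 0 through day 12, with treatment renewed on DIV 5 and 9. Percent of spikes within 0.05 s network-spike peaks was measured, summarised as AUC across days 5, 7, 9, 12.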

The nature of experiment [4]: CCTE_Shafer_MEA_dev_mutual_information_norm: CCTE's Neural Network Formation Assay for Mutual Information Normalization, Shafer Lab (AID 2284091).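 Note: mutual information between electrodes summarised as area under curve across four recording days; potency is for a decrease in mutual information relative to DMSO.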 The method, boiled down: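 Primary rat cortical neurons on PEI-coated 48-well MEA plates, 1.5 x 10^5 cells/well, exposed from day 0 through day 12 with re-dosing at DIV 5 and 9. Mutual information between electrodes recorded days 5, 7, 9, 12; trapezoidal AUC, loss-of-signal fit versus DMSO.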

The source holds more than one record for some entries. The list is limited to them. An entry can have further records. Values that stand side by side are repeats in other runs, samples, wells, individuals or studies. Results filed as inconclusive are left out. Rule for the calls, unless noted: active = hit-call score of the fitted dose curve at least 0.9, where 1 is the maximum; inactive = score below 0.9.

As for `CN(C)CCCn1cc(C2=C(c3c[nH]c4ccccc34)C(=O)NC2=O)c2ccccc21`, the concentration at half-maximal activity (AC50) entry in experiment [1] is “active: 3.76, 1.33, 4.21, 2.32 µM [separate samples]”; in experiment [2], “active: 7.82, 2.85, 5, 1.99 µM [separate samples]”; in experiment [3], “active: 2.8 µM, 816 nM, 2.55 µM, 5 µM [separate samples]”; in experiment [4] it was “active: 449 nM, 239 nM, 1.82 µM, 1.54 µM [separate samples]”.
